{"source": "PubChem BioAssay AID485294", "about": "(National Center for Advancing Translational Sciences (NCATS), 2010)", "note": "Screen size: about 370,000 compounds; about 150 (0.041%) were called active. Inconclusive results, whose numbers are uncertain, are shown with a selection of clear calls. The call rests on the fitted dose curve; in most records, active means well fitted inhibition curve with a large enough effect; inconclusive means small, poorly fitted or top-dose-only effect; inactive means flat fitted curve, though single readings scatter. No potency is given beside an inconclusive call; the fits are too rough. Potency means the concentration at half of the fitted maximal effect; tags describe the fitted curve by direction and shape."}
{"target": "Beta-lactamase (Escherichia coli (strain K12)) (UniProt P00811)", "sequence (P00811 whole entry, looked up)": "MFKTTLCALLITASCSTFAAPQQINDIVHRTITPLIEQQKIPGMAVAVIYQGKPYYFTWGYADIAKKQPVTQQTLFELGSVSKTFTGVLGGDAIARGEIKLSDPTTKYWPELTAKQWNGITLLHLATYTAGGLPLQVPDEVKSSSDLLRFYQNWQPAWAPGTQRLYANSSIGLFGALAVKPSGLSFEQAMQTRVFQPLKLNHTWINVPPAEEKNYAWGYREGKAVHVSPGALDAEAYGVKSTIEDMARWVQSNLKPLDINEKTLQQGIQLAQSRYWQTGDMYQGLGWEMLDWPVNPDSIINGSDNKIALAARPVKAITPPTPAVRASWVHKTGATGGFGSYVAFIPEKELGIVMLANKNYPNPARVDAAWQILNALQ", "assay": "qHTS Inhibitors of AmpC Beta-Lactamase (assay with detergent); further: nearly all actives have a fitted effect of over 25% in size;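 on activity change, negative = inhibition: 0% = no-compound wells and -100% = no-enzyme wells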", "conditions": "AmpC hydrolysis of nitrocefin, absorbance 480 nm, 0.01% Triton; activity change, negative = inhibition: at 114 µM (top of the series)", "outline": "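AmpC (5.3 nM in the dispensed reagent) in 20 mM phosphate pH 7.0 with 0.01% (detergent screen) or 0.0001% Triton X-100 was preincubated with compounds for 15 min at room temperature. Nitrocefin was then added from an 800 uM solution, and hydrolysis was followed at 480 nm.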"}
{"smiles": "Cc1ccc(C2NC(=S)NC3=C2C(=O)CCC3)cc1", "note": "(stereo not given)", "Potency": "inconclusive [inhibitor, partial curve, poor fit]"}
{"smiles": "O=S1(=O)CCOC[C@H](c2ccccc2)N1Cc1cccc(Cl)c1", "Potency": "inconclusive [inhibitor, single point]"}
{"smiles": "CCc1noc(C)c1C(=O)Nc1nc(-c2ccc(OC)cc2OC)cs1", "activity change, negative = inhibition": "inactive: -20.6%"}
{"smiles": "Cc1c(N=C(N)/N=C(\\N)Nc2ccc(Br)cc2)c(=O)n(-c2ccccc2)n1C", "activity change, negative = inhibition": "inconclusive: -19.2% [inhibitor]"}
{"smiles": "COc1ccccc1-n1nnnc1SCC(=O)NC1CCCC1", "Potency": "inconclusive [inhibitor, single point]"}
{"smiles": "CCC1(C)Cc2ccccc2-c2nc3n(c(=O)c21)CCS3", "note": "(stereo not given)", "Potency": "inconclusive [inhibitor, full curve, poor fit]"}
{"smiles": "COc1ccc(C(C)=O)cc1CSc1ncccn1", "activity change, negative = inhibition": "inactive: -0.343%"}
{"smiles": "C=CCc1cccc(/C=N/NC(=O)CCC(=O)Nc2ccc(C)cc2)c1O", "Potency": "inconclusive [inhibitor, full curve, poor fit]"}
{"smiles": "CCOC(=O)C1CCN(Cc2cc(Cl)c3ccccc3c2O)CC1", "activity change, negative = inhibition": "inactive: -12.5%"}
{"smiles": "Cc1nn(C)c(C)c1S(=O)(=O)N1CCCC(C(=O)NCCc2ccc(Cl)cc2)C1", "note": "(stereo not given)", "Potency": "inconclusive [inhibitor, full curve, poor fit]"}
{"smiles": "O=C(C1CCN(S(=O)(=O)c2ccc(Br)s2)CC1)N1CCN(c2cccc(Cl)c2)CC1", "activity change, negative = inhibition": "inactive: 11%"}
{"smiles": "Cc1ccc(Sc2c(C)nn(C(=O)COc3ccccc3Br)c2C)cc1", "activity change, negative = inhibition": "inactive: 12.5%"}
{"smiles": "CC1=NN(C(=O)CCc2ccccc2O)C(O)(C(F)(F)F)C1", "note": "(stereo not given)", "Potency": "inconclusive [inhibitor, partial curve]"}
{"smiles": "O=C(CNC(=O)OCc1ccccc1)NCC(=O)Nc1ccc(Br)cc1C(=O)c1ccccc1", "Potency": "inconclusive [inhibitor, full curve, poor fit]"}
{"smiles": "O=C(Nc1ccc(S(=O)(=O)N2CCCCCC2)cc1)c1ccco1", "activity change, negative = inhibition": "inactive: 0.254%"}
{"smiles": "NC(N)=NS(=O)(=O)c1ccc(NC(=S)NC(=O)c2ccc(Br)cc2)cc1", "Potency": "inconclusive [inhibitor, full curve, poor fit]"}
{"smiles": "CCN(CC(=O)Nc1ccccc1OC)CC(=O)Nc1ccccc1-c1ccccc1", "activity change, negative = inhibition": "inactive: -2.6%"}
{"smiles": "COC(=O)C1=C(C)NC(=O)NC1c1ccc([N+](=O)[O-])o1", "note": "(stereo not given)", "activity change, negative = inhibition": "inactive: -1.22%"}
{"smiles": "COc1ccc(CCN2C(=O)CC(Sc3ncccc3C(=O)O)C2=O)cc1OC", "note": "(stereo not given)", "Potency": "inconclusive [inhibitor, full curve, poor fit]"}
{"smiles": "Cc1cccc(OCCn2c(=O)n(C)c3ccccc32)c1", "Potency": "inconclusive [inhibitor, full curve, poor fit]"}
{"smiles": "CCC(C)[C@H](NC(=O)[C@H](Cc1ccccc1)n1c(=O)[nH]c2ccccc2c1=O)C(=O)NCC1CCC(C(=O)O)CC1", "note": "(stereo not given in full)", "Potency": "inconclusive [inhibitor, full curve, poor fit]"}
{"smiles": "O=C(Nc1cccc(-c2cnc3ccccc3n2)c1)c1cccc(NC(=O)c2ccco2)c1", "activity change, negative = inhibition": "inactive: -2.57%"}
{"smiles": "CCCCCCCN=CC1=C(O)CC(c2ccccc2)CC1=O", "note": "(stereo not given)", "Potency": "inconclusive [inhibitor, full curve]"}
{"smiles": "CCNC(=O)OCc1cn(-c2ccc(Cl)cc2)nn1", "Potency": "inconclusive [inhibitor, full curve]"}
{"smiles": "CCOc1ccc(NC(=O)CSc2ncc3c(n2)-c2ccc(Cl)cc2N(Cc2ccccc2)S3(=O)=O)cc1", "activity change, negative = inhibition": "inactive: -1.42%"}
{"smiles": "COC(=O)c1cc(NS(=O)(=O)c2ccc(OC)c(OC)c2)ccc1Cl", "Potency": "inconclusive [inhibitor, full curve, poor fit]"}
{"smiles": "Cc1nn(Cc2cccc(C(=O)N3N=C(C(F)F)CC3(O)C(F)F)c2)c(C)c1[N+](=O)[O-]", "note": "(stereo not given)", "Potency": "inconclusive [inhibitor, full curve]"}
{"smiles": "CCN(c1cccc(C)c1)S(=O)(=O)c1nnc(NC(=O)C2CCCCC2)s1", "activity change, negative = inhibition": "inactive: 7.15%"}
{"smiles": "CC(C)(C)C(=O)Nc1ccc(N2CCN(c3ccc(C(F)(F)F)cn3)CC2)nc1", "activity change, negative = inhibition": "inactive: -10.4%"}
{"smiles": "COc1cccc(NC(=O)CN(C)C(C)C(=O)Nc2ccc(C#N)cc2)c1", "note": "(stereo not given)", "Potency": "inconclusive [inhibitor, single point]"}
{"smiles": "O=C(N/N=C/c1ccccc1F)c1cc2c(ccc3ccccc32)o1", "Potency": "inconclusive [inhibitor, full curve, poor fit]"}
{"smiles": "CCOc1ccc(C(=O)COC(=O)Cc2n[nH]c(=O)c3ccccc23)cc1", "Potency": "inconclusive [inhibitor, full curve, poor fit]"}
{"smiles": "CSC(=NCc1cccnc1)NS(=O)(=O)c1cccs1", "Potency": "inconclusive [inhibitor, partial curve, poor fit]"}
{"smiles": "NC(=O)NC(=O)COC(=O)c1ccccc1Oc1ccccc1", "Potency": "inconclusive [inhibitor, full curve, poor fit]"}
{"smiles": "CCOC(=O)C1=C(C)NC(=O)NC1/C=C\\c1ccccc1", "note": "(stereo not given)", "Potency": "inconclusive [inhibitor, partial curve, poor fit]"}
{"smiles": "COC(=O)CN1C(=O)C(O)(CC(=O)c2ccc(C)cc2)c2ccccc21", "note": "(stereo not given)", "Potency": "inconclusive [inhibitor, partial curve]"}
{"smiles": "O=C(COc1ccccc1)Nc1cc(Cl)ccc1Cl", "Potency": "inconclusive [inhibitor, partial curve]"}
{"smiles": "CCOC(=O)C/C(=N\\Nc1ncnc2ccccc12)c1ccccc1", "activity change, negative = inhibition": "inactive: 4.33%"}
{"smiles": "OC(COc1ccccc1)CN1CCC(Cc2ccccc2)CC1", "note": "(stereo not given)", "Potency": "inconclusive [inhibitor, full curve]"}
{"smiles": "O=C(N/N=C/c1coc2ccccc2c1=O)c1ccccc1Br", "Potency": "inconclusive [inhibitor, partial curve, poor fit]"}
{"smiles": "CCOc1ccc(CCNC(=O)COC(=O)c2cccc(S(=O)(=O)N3CCCC3)c2)cc1OCC", "Potency": "inconclusive [inhibitor, partial curve]"}
{"smiles": "O=C1C(Nc2ccc(O)cc2)=C/C(=N/S(=O)(=O)c2cccs2)c2ccccc21", "Potency": "inconclusive [inhibitor, single point]"}
{"smiles": "O=C(CN1C(=O)C2C3C=CC(C3)C2C1=O)Nc1nc(-c2ccccn2)cs1", "note": "(stereo not given)", "Potency": "inconclusive [inhibitor, full curve]"}
{"smiles": "Cc1ccc(CNC(=O)c2ccc3c(=O)[nH]c4c(C(=O)NCC5CCCO5)sc(=S)n4c3c2)cc1", "note": "(stereo not given)", "Potency": "inconclusive [inhibitor, partial curve]"}
{"smiles": "O=C(CSc1nnc(CNC(=O)c2cccs2)o1)Nc1ccc(F)cc1F", "Potency": "inconclusive [inhibitor, single point]"}
{"smiles": "CCOC(=O)c1ccc(Oc2ccc(C(F)(F)F)cn2)cc1", "Potency": "inconclusive [inhibitor, full curve, poor fit]"}
{"smiles": "CCOc1ccc(NC(=O)CSc2nnc(-c3ccccc3Cl)n2Cc2ccco2)cc1", "Potency": "inconclusive [inhibitor, full curve, poor fit]"}
{"smiles": "CC(Sc1nnc2c(n1)[nH]c1ccccc12)C(=O)N(C)C1CCCCC1", "note": "(stereo not given)", "activity change, negative = inhibition": "inactive: -1.73%"}
{"smiles": "COc1ccc(OCC(=O)Nc2ccc3c(c2)nc2n3CCSC2)cc1", "Potency": "inconclusive [inhibitor, full curve, poor fit]"}
{"smiles": "CCC(=O)NCCC(c1ccco1)c1ccccc1OC", "note": "(stereo not given)", "Potency": "inconclusive [inhibitor, partial curve, poor fit]"}
{"smiles": "O=[N+]([O-])c1ccc(Oc2ccc(F)cc2Br)c2ccncc12", "Potency": "inconclusive [inhibitor, single point]"}
{"smiles": "Cc1ccc(C(=O)NN2C(=O)C3C4c5ccccc5C(c5ccccc54)[C@@H]3C2=O)cc1", "note": "(stereo not given in full)", "Potency": "inconclusive [inhibitor, single point]"}
{"smiles": "CSc1ccccc1C(=O)Nc1cccc(C(C)O)c1", "note": "(stereo not given)", "Potency": "inconclusive [inhibitor, full curve]"}
{"smiles": "COc1ccc(-c2nc(CN3CCN(Cc4cccc(Cl)c4)CC3)c(C)o2)cc1", "Potency": "inconclusive [inhibitor, full curve, poor fit]"}
{"smiles": "COC(=O)c1c(SCC(=O)Nc2cc(C)cc(C)c2)[nH]c2ccccc2c1=O", "activity change, negative = inhibition": "inactive: 14.1%"}
{"smiles": "CCOc1ccc(C(C)(C)C)cc1S(=O)(=O)n1nc(C)cc1C", "Potency": "inconclusive [inhibitor, full curve, poor fit]"}
{"smiles": "CCn1c(SCc2nc3sc(C(=O)O)c(C)c3c(=O)[nH]2)nc2ccccc21", "Potency": "inconclusive [inhibitor, single point]"}
{"smiles": "COc1ccc(C(=O)NNC(=O)c2ccc(C(C)(C)C)cc2)cc1", "Potency": "inconclusive [inhibitor, partial curve]"}
{"smiles": "COc1ccc(OC)c(NC(=O)C2CCC(CNc3c(N4CCC(C)CC4)c(=O)c3=O)CC2)c1", "note": "(stereo not given)", "Potency": "inconclusive [inhibitor, full curve, poor fit]"}
{"smiles": "COc1ccccc1NS(=O)(=O)c1ccc(Cl)c(NC(=S)NC(=O)C2CCCC2)c1", "Potency": "inconclusive [inhibitor, single point]"}
{"smiles": "CNc1ccccc1C(=O)OC(C)C(=O)Nc1ccc(Cl)cn1", "note": "(stereo not given)", "Potency": "inconclusive [inhibitor, full curve, poor fit]"}
{"smiles": "O=C(OCC(=O)N1CCCC1)c1cccs1", "activity change, negative = inhibition": "inactive: -8.28%"}
{"smiles": "O=C(CSc1nnc(-c2ccccc2)n1C1CCCCC1)Nc1ccc(S(=O)(=O)Nc2ccccn2)cc1", "activity change, negative = inhibition": "inactive: -0.421%"}
{"smiles": "CCC(=O)Nc1cc2c(C)cc(=O)oc2cc1C", "Potency": "inconclusive [inhibitor, full curve, poor fit]"}
{"smiles": "COc1ccc(-c2cc(C(=O)NCc3ccco3)c3ccccc3n2)cc1", "Potency": "inconclusive [inhibitor, full curve, poor fit]"}
